From PubChem BioAssay AID1918944 (Molecular Pharmacology Branch, DTP, NCI, 2023)
For part of its entries the source gives two or more results. They are shown here; other results are not. There may be further records. The values listed for one entry are repeated measurements (runs, samples, wells, individuals or studies). Brackets with × count equal records among those shown.

Tested on: 786-0 complex spheroid viability
Assay: Anticancer human tumor 786-0 cell line growth inhibition;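 note: spheroids exposed to agents for seven days before readout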
Conditions: stronger effect = lower value
Excerpt: Multicellular complex tumor spheroid response to LSD1 Inhibitor Iadademstat in combination with a variety of drugs and investigational agents in selected tumor cell lines
The current study was undertaken to assess response to LSD1 inhibitors in combination with standard-of-care drugs and investigational agents in solid tumor complex spheroid models as well as in the K-562 leukemia. Complex spheroids include a stromal component modeled by human endothelial cells (HUVEC) and fibroblasts modeled by human mesenchymal stem cells (MSCs). The concentration ranges selected for each drug and investigational agent were based upon clinically achievable concentrations if the clinical Cmax of the agent was known.
Compounds. The drugs and investigational agents used in this study are listed on Table 1. All of the agents used, including staurosporine (NSC755774) and gemcitabine (NSC613327), were obtained from the Developmental Therapeutics Program, NCI. FDA-approved anticancer drugs are available from the NCI at http://dtp.nci.nih.gov/branches/dscb/oncology_drugset_explanation.html. Drugs and investigational agents were >95% pure by proton nuclear magnetic resonance (NMR) and liquid chromatography/mass spectrometry (LC/MS). […] If the clinical Cmax for an agent had not been determined, the highest concentration tested was 10 microM. […]

Compound: NC1CC1c1ccc(-c2cccc(O)c2)cc1 (configuration not stated)
- viability, T/C (compound alone 1 µM): 105 (2×), 118, 97.3, 113 (3×), 107, 103 (2×), 109 (2×), 106, 112, 101, 102, 96, 91.3, 108, 94.7, 114, 99.8, 110, 97.1, 117%
- viability, T/C (compound alone 3.16 µM): 107 (2×), 110 (3×), 93.2, 86.8, 108 (2×), 97.2, 103 (4×), 97, 93 (2×), 95.4, 92.1, 93.8, 104, 116, 98.7, 90.3, 111%
